Binding data for four molecules are collected here from PMC547899.

Protein sequences, listed by entry. Tags and fused reporters are not part of them.
UniProt Q9UQE7: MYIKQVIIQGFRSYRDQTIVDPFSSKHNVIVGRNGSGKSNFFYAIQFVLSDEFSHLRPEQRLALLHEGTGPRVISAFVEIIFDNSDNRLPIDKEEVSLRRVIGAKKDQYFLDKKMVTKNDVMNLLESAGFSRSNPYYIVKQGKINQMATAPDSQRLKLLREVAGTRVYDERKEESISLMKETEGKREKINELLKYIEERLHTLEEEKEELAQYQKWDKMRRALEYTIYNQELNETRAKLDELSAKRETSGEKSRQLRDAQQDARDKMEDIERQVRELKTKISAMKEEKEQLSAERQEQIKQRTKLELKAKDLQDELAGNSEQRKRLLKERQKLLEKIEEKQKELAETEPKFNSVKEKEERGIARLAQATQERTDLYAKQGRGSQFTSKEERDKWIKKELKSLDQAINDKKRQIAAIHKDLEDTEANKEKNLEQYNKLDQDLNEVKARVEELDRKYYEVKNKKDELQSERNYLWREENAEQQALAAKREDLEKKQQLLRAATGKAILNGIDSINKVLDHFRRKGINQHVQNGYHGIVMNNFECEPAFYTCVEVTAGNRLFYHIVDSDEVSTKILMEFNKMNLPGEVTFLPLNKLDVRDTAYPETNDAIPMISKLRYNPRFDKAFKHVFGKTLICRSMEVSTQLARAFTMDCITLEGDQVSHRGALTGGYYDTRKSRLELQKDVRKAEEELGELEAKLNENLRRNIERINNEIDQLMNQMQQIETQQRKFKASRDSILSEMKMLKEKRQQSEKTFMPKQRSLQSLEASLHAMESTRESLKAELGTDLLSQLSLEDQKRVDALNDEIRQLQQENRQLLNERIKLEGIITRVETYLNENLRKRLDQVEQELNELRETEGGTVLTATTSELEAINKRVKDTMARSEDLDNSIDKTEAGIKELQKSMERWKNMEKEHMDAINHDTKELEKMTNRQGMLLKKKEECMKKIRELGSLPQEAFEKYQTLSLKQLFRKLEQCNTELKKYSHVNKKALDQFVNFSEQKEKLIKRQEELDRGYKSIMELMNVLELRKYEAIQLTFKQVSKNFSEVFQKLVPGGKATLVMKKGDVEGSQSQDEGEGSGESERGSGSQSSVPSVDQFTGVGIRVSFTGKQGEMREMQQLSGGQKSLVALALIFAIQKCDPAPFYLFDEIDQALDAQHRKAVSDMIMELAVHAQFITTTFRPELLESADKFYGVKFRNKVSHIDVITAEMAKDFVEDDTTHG

These are yes or no findings as the source states them, for the method shown. For some assays here: In cells and extracts the contact can be indirect. Some results given as binding are weak or reduced against the parent protein; the word gives no strength.

Test [1] concerns the target SMC3 (endogenous, 293 cells) (human (endogenous in 293)) (UniProt Q9UQE7). The test can be described thus: co-IP; 293 cells transfected with Hinderin-V5, lysate in 50 mM Tris-HCl pH 7.5, 150 mM NaCl, 1% Nonidet P40, 0.5% Na-deoxycholate; precipitated with anti-SMC3, anti-SMC1 or anti-V5 antibody on protein G-agarose, washed with 300 mM NaCl, immunoblotted.
Test [2] addresses T1, SMC1 (endogenous, 293 cells) (human (endogenous in 293)) (UniProt Q14683).
T1 sequence: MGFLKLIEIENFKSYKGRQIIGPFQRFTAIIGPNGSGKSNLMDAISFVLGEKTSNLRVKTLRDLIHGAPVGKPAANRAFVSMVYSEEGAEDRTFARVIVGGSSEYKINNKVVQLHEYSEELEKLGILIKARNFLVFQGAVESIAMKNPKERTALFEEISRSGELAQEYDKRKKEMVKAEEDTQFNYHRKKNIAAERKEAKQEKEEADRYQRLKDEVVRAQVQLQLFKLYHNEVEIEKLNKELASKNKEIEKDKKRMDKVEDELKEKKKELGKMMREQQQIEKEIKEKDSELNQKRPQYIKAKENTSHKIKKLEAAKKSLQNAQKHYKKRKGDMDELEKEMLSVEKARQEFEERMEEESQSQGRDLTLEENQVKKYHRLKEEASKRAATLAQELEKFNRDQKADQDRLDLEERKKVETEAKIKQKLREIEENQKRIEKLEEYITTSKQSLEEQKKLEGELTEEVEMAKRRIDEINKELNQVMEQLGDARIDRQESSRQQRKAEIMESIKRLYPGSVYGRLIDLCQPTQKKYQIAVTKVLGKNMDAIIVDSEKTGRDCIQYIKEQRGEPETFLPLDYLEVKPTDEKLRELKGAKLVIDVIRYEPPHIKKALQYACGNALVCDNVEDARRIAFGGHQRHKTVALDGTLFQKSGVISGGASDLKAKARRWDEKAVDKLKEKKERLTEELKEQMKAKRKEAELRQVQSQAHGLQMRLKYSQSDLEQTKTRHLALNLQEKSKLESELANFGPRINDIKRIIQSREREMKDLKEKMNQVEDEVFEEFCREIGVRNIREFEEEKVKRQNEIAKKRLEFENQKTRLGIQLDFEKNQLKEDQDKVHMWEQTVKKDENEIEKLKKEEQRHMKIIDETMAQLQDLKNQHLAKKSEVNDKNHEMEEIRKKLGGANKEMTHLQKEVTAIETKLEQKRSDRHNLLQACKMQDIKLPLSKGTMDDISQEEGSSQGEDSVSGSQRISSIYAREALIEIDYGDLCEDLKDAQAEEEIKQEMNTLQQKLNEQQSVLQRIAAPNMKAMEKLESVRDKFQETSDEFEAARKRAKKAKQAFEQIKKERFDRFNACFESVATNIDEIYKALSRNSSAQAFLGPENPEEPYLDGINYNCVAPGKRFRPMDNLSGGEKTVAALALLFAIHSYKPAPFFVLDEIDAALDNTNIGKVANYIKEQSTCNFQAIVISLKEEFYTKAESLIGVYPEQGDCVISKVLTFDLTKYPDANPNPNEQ
The description is as above.

For test [3], the target named is Hinderin-V5 (complete Hinderin coding region with V5 tag) (human) (UniProt Q86T90). The description is as above.
Test [4] concerns the target T2, Hinderin H-47/578 (clone retrieved from the two-hybrid library) (human) (UniProt Q86T90).
T2 sequence: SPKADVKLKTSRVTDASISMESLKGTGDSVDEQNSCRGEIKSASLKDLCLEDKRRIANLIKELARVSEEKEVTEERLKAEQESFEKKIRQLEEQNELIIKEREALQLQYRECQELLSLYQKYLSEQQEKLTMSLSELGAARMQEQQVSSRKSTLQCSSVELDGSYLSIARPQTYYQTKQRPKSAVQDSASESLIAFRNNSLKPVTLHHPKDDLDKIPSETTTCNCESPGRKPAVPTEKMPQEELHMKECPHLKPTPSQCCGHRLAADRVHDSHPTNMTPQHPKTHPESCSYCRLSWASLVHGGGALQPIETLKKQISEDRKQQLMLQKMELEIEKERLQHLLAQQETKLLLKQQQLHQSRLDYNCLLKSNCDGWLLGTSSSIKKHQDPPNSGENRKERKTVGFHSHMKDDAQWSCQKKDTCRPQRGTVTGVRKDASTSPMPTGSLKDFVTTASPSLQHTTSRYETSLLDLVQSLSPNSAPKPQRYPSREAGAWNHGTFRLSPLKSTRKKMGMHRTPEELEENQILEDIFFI
Description: two-hybrid; yeast two-hybrid, AH109 cotransformed with defined bait (pGBKT7) and prey (pACT2 or pGADT7) constructs; scored by the rate of appearance of blue colonies and the colour; null score when no blue colonies after ten days.

Consider “Hinderin-V5 (complete Hinderin coding region with V5 tag) (from UniProt Q86T90 1-577)”, for which the binding result is “binds” in test [1] and “no binding” in test [2].
For the molecule “SMC3 (endogenous, 293 cells) (from UniProt Q9UQE7 1-1217)”, in test [3], the binding result is “binds”.

B1: SMC1-485/670 (entire SMC1 hinge region) (domain or fragment, UniProt Q14683 485-670)
chain: GDARIDRQESSRQQRKAEIMESIKRLYPGSVYGRLIDLCQPTQKKYQIAVTKVLGKNMDAIIVDSEKTGRDCIQYIKEQRGEPETFLPLDYLEVKPTDEKLRELKGAKLVIDVIRYEPPHIKKALQYACGNALVCDNVEDARRIAFGGHQRHKTVALDGTLFQKSGVISGGASDLKAKARRWDEKA
Consider B1, for which the binding entry in test [4] is listed as “no binding”.

B2: SMC1 (endogenous, 293 cells) (protein, UniProt Q14683 1-1233)
chain: MGFLKLIEIENFKSYKGRQIIGPFQRFTAIIGPNGSGKSNLMDAISFVLGEKTSNLRVKTLRDLIHGAPVGKPAANRAFVSMVYSEEGAEDRTFARVIVGGSSEYKINNKVVQLHEYSEELEKLGILIKARNFLVFQGAVESIAMKNPKERTALFEEISRSGELAQEYDKRKKEMVKAEEDTQFNYHRKKNIAAERKEAKQEKEEADRYQRLKDEVVRAQVQLQLFKLYHNEVEIEKLNKELASKNKEIEKDKKRMDKVEDELKEKKKELGKMMREQQQIEKEIKEKDSELNQKRPQYIKAKENTSHKIKKLEAAKKSLQNAQKHYKKRKGDMDELEKEMLSVEKARQEFEERMEEESQSQGRDLTLEENQVKKYHRLKEEASKRAATLAQELEKFNRDQKADQDRLDLEERKKVETEAKIKQKLREIEENQKRIEKLEEYITTSKQSLEEQKKLEGELTEEVEMAKRRIDEINKELNQVMEQLGDARIDRQESSRQQRKAEIMESIKRLYPGSVYGRLIDLCQPTQKKYQIAVTKVLGKNMDAIIVDSEKTGRDCIQYIKEQRGEPETFLPLDYLEVKPTDEKLRELKGAKLVIDVIRYEPPHIKKALQYACGNALVCDNVEDARRIAFGGHQRHKTVALDGTLFQKSGVISGGASDLKAKARRWDEKAVDKLKEKKERLTEELKEQMKAKRKEAELRQVQSQAHGLQMRLKYSQSDLEQTKTRHLALNLQEKSKLESELANFGPRINDIKRIIQSREREMKDLKEKMNQVEDEVFEEFCREIGVRNIREFEEEKVKRQNEIAKKRLEFENQKTRLGIQLDFEKNQLKEDQDKVHMWEQTVKKDENEIEKLKKEEQRHMKIIDETMAQLQDLKNQHLAKKSEVNDKNHEMEEIRKKLGGANKEMTHLQKEVTAIETKLEQKRSDRHNLLQACKMQDIKLPLSKGTMDDISQEEGSSQGEDSVSGSQRISSIYAREALIEIDYGDLCEDLKDAQAEEEIKQEMNTLQQKLNEQQSVLQRIAAPNMKAMEKLESVRDKFQETSDEFEAARKRAKKAKQAFEQIKKERFDRFNACFESVATNIDEIYKALSRNSSAQAFLGPENPEEPYLDGINYNCVAPGKRFRPMDNLSGGEKTVAALALLFAIHSYKPAPFFVLDEIDAALDNTNIGKVANYIKEQSTCNFQAIVISLKEEFYTKAESLIGVYPEQGDCVISKVLTFDLTKYPDANPNPNEQ
In the case of B2, the binding entry in test [3] is reported as “no binding”.
